Measured values published in the supplement of paper PMC10126150.
Values marked as one replicate rest on one cluster of the flow cell; about a third of the high ones do not repeat.

test system: ATP; experiment: switch fluorescence ratio, 500 uM ATP over buffer (Cy3 cluster intensity, sum of 5 cycles each) (fold (ratio)); higher = stronger signal-on switching upon ATP binding; sequences stand for … in TCGTCGGCAGCGTCAGATGTGTATAAGAGACAGTTTTTTTTTTTTTTTTTTTTTTTTT…TC; conditions: aptamer strand: ATP DNA aptamer (quencher-CACCTGGGGGAGTATTGCGGAGGAAGG + anchor), 100 nM annealed; ATP concentration: 500 uM; one replicate
In short: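 Cy3-labelled switching-strand clusters on a modified Illumina MiSeq flow-cell were annealed to 100 nM quencher-labelled ATP aptamer, imaged in selection buffer, then imaged after 15 min with 500 uM ATP at 22 °C. Five buffer/ATP cycles ran, with NaOH stripping and re-annealing between them. The fluorescence ratio is summed target-cycle over summed buffer-cycle Cy3 intensity per cluster, averaged per switch-domain sequence. Clusters outside 100-1000 RFU were excluded.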
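Note: ATP exposure 15 min at 22 °C before imaging.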

Sequence	switch fluorescence ratio
TATTTAACGT	1.05
TATTTAGCTT	1.03
TATTTAGGAT	1
TATTTAGTAC	0.956
TATTTATCAC	1.03
TATTTCCGCT	1.88
TATTTCGGT	0.953
TATTTCTTCT	1.01
TATTTGAAAC	0.981
TATTTGAATT	1.04
TATTTGGAAT	1.01
TATTTGGCGA	1.01
TATTTTGGA	0.989
TATTTTTCGA	1.01
TCAAAAACAA	1.01
TCAAAAGCTG	0.972
TCAAAATAAC	1.06
TCAAACTCTG	0.994
TCAAAGCACT	1.15
TCAAAGCGCC	1.05
TCAAAGTACA	1.16
TCAAAGTATT	0.97
TCAAATCAGA	1.02
TCAACTGCTG	1.04
TCAAGAAAAG	1.03
TCAAGCCCAA	0.984

Sequence	switch fluorescence ratio
TCAAGCGCCA	0.992
TCAAGCGCTC	1.18
TCAAGGGTAC	1.02
TCAATAAACG	1.06
TCAATAGCGA	1.18
TCAATATCGG	1.01
TCAATATGCT	0.995
TCAATCGAGA	0.995
TCAATGAATG	0.99
TCAATGCGCG	1.08
TCAATTCAGA	1.05
TCAATTCGCG	1.02
TCAATTCGGT	1.03
TCACAAATTG	1.06
TCACAACTTG	0.981
TCACACGAGA	1.06
TCACAGCCCA	1.05
TCACATTCTC	1.06
TCACCCAAAA	1.06
TCACCCGAAC	1.22
TCACCGAGGA	1.07
TCACCGGTCA	1.01
TCACCTATT	1.08
TCACCTTTGG	1.02
TCACGAGATG	1.05
TCACGAGTTG	1

Sequence	switch fluorescence ratio
TCACGCACCA	1.53
TCACGGTGGT	1.02
TCACGTTGAG	1.05
TCACTCGGG	1.01
TCACTCGTAA	1.27
TCACTCTCTT	0.966
TCACTGATGT	1.01
TCACTTGTGT	0.999
TCACTTTAAC	1.06
TCAGAAAATA	0.993
TCAGAAATCA	1.02
TCAGAATCA	1.01
TCAGAATCAA	1.04
TCAGACAGTC	1.01
TCAGACCACC	1.13
TCAGACCAGA	1.02
TCAGACGGGG	1.02
TCAGACGGTG	1.04
TCAGAGACAT	1.02
TCAGAGATA	0.931
TCAGAGGCG	1.04
TCAGATCCAC	0.981
TCAGCAACTG	1.26
TCAGCCAGCT	1.01
TCAGCGCTCT	0.973
TCAGCGGTGG	1.04

Sequence	switch fluorescence ratio
TCAGCTTTTC	1.01
TCAGGATGCA	1.06
TCAGGATTT	0.996
TCAGGGCTGA	0.984
TCAGGGGTAG	1.01
TCAGGGGTGA	0.987
TCAGGGTGGT	1.02
TCAGGGTTCT	0.956
TCAGGTGAG	1.28
TCAGGTTCAG	1.01
TCAGGTTTGA	1.04
TCAGTAAT	1.66
TCAGTACGCT	1.29
TCAGTAGGGC	1.06
TCAGTGTAGT	1.04
TCAGTGTATT	0.98
TCAGTGTCAG	1.02
TCAGTTCATG	0.994
TCAGTTCGCG	1.01
TCAGTTGCGG	1.01
TCAGTTTAAT	0.976
TCAGTTTCCG	1.21
TCAGTTTCCT	1.04
TCATAAGCGT	0.993
TCATAATAGG	0.968
TCATAGACTT	1.04

Sequence	switch fluorescence ratio
TCATAGAGGG	1
TCATAGATCC	1
TCATAGGGCC	1.01
TCATATGCTC	0.991
TCATATTAA	1
TCATCCAGAG	1.04
TCATCGGGCC	1.04
TCATGAATTG	1.03
TCATGCA	1.06
TCATGCTCGG	1.03
TCATTAAGCG	0.96
TCATTAGGTA	1
TCATTATAGA	1.04
TCATTCATTG	1.01
TCATTCC	1.29
TCATTGAAGC	1.07
TCATTGACTG	1.05
TCATTGGACG	1.06
TCATTGTAAG	1.01
TCATTGTGTT	0.998
TCATTTCGAT	0.947
TCATTTTAAA	0.995
TCCAACAGCG	1.06
TCCAACGGCT	0.982
TCCAAGCAAG	1.07
TCCAAGCGGC	1.56

Sequence	switch fluorescence ratio
TCCAAGGATT	0.964
TCCAAGGCTG	0.987
TCCAAGTGTA	1.03
TCCAATCAAT	1.09
TCCAATCAGA	0.938
TCCAATTGGT	1.02
TCCACATAGG	1.07
TCCACCTGGT	1.49
TCCACCTGTG	1.4
TCCACGCCGT	1.06
TCCACGGAGG	0.943
TCCACGGCTG	0.97
TCCACGTGCC	1.03
TCCACGTTTG	1.03
TCCAGCCCCA	1.03
TCCAGCGCCC	1.04
TCCAGCTGCC	1.08
TCCAGGGCTG	1.07
TCCAGGTAAT	1.08
TCCAGTCAGT	0.994
TCCATACCCT	1.05
TCCATCAATA	1.28
TCCATCAGCG	1.11
TCCATCGTAT	1.07
TCCATGGCTC	0.975
TCCATGTAGT	1.05

Sequence	switch fluorescence ratio
TCCATTAAAG	1
TCCATTATA	0.987
TCCCAAAACG	0.998
TCCCAACACC	3.46
TCCCAAGTGT	0.989
TCCCACA	1.26
TCCCAGACCC	1.02
TCCCAGTACC	1.32
TCCCATACCG	1.01
TCCCCAAGAT	1.06
TCCCCCCTAA	0.969
TCCCCCGTTT	1.14
TCCCCTCCAG	1.36
TCCCTAGTAA	1.26
TCCCTATTGG	0.993
TCCCTCACCA	1.06
TCCCTCTGAA	1.13
TCCCTGGGG	1.1
TCCCTGTGCC	1.09
TCCCTTGACC	1.02
TCCCTTTTTT	1
TCCGAAAGCA	2.61
TCCGACGTCA	5.83
TCCGAGAAAC	1.79
TCCGAGGATA	1.08
TCCGAGGGTG	1.69

Sequence	switch fluorescence ratio
TCCGAGTCGG	1.1
TCCGATCGGC	1.06
TCCGCAGGCG	1.86
TCCGCCGATT	1.02
TCCGGAATAA	4.11
TCCGGATATG	0.993
TCCGGATTAT	0.995
TCCGGCGTGT	1.05
TCCGGCTAAT	1.21
TCCGGCTCCT	1.02
TCCGGGCGAA	1.09
TCCGGGTT	1.05
TCCGGTTGGA	1.04
TCCGTATCCT	1.06
TCCGTATGTG	0.97
TCCGTCACGC	2.03
TCCGTCATG	1.14
TCCGTCGGAT	1.08
TCCGTGCGAG	1.33
